Reference: PubChem BioAssay AID2675 (National Center for Advancing Translational Sciences (NCATS), 2010)
The campaign covered roughly 280,000 compounds. About 100 (0.036%) were called active. This list was built around the results that the source calls inconclusive (neither active nor inactive); the mix of calls is not that of the screen. Calls come from the whole dose curve; as a rule, active = well fitted inhibition curve with a large enough effect in the signal ratio, with a control signal flat (not every such curve was filed as active); inconclusive = small, poorly fitted or top-dose-only effect, or effect the other way, or a change in a side signal; inactive = no such curve, though single readings can be large or run the other way; the % refers to the signal ratio. Where the call is inconclusive, the potency comes from a doubtful curve fit. “Side channel” marks fits to a control or component signal instead of the main read-out.

Target: Muscleblind-like protein 1 (Homo sapiens) (UniProt Q9NR56)
Assay: qHTS Assay for Inhibitors of MBNL1-poly(CUG) RNA binding
Conditions: TR-FRET MBNL1-His/biotin-(CUG)12 binding, 665/545 ratio; activity change, negative = inhibition: at 57.5 µM (top of the series)
Procedure, shortened: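 Ratiometric TR-FRET (665 over 545 nm, excitation 340 nm) tracks disruption of MBNL1-His/biotin-(CUG)12 complex after 60 min at room temperature, with compounds at 92 nM to 58 uM final.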
% is set by controls: 0 for no effect and ±100 for the full control effect; potency is the fitted concentration of half-maximal effect; tags give direction and shape of the fitted curve or compound fluorescence and quenching.

Sequence of UniProt Q9NR56 (Q9NR56 whole entry, looked up): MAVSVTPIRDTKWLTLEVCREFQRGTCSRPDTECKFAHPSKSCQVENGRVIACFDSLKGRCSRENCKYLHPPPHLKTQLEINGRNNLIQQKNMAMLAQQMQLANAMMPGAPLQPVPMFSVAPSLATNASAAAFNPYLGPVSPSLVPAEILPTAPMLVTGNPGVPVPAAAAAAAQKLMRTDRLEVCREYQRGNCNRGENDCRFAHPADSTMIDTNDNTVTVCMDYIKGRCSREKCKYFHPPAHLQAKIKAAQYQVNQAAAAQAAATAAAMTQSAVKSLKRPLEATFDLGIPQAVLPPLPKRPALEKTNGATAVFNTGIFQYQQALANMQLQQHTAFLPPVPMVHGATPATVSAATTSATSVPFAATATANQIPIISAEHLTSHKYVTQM

Compound	Potency	activity change, negative = inhibition
O=C(c1ccccc1)c1cc[n+]([O-])cc1	inconclusive: 7.08 µM [quencher, side channel, full curve]	–
O=C1/C(=C\c2cccnc2)SC(=S)N1C1CCS(=O)(=O)C1 (stereo not drawn)	inconclusive: 10 µM [quencher, side channel, partial curve, poor fit]	–
CCOC(=O)N1CCN(c2cc(N3CCOCC3)c(F)cc2[N+](=O)[O-])CC1	inconclusive: 11.2 µM [quencher, side channel, partial curve]	–
COc1cccc(C(=O)Oc2ccc(/C=N/Nc3ccc(C(=O)O)cc3)cc2OC)c1	–	inactive: 14.8%
COc1ccc(-c2cc3ccccc3oc2=O)cc1NC(=O)c1ccc([N+](=O)[O-])o1	inconclusive: 3.55 µM [quencher, side channel, full curve, poor fit]	–
O=C(c1cccc(Oc2c(Cl)cccc2[N+](=O)[O-])c1)N1CCOCC1	inconclusive: 15.8 µM [quencher, side channel, partial curve]	–
O=C(CCNC(=O)c1ccc([N+](=O)[O-])cc1)Nc1ccc(F)cc1F	inconclusive: 10 µM [quencher, side channel, partial curve]	–
CC1CCN(c2cc(N3CCOCC3)c([N+](=O)[O-])cc2F)CC1	inconclusive: 12.6 µM [quencher, side channel, partial curve]	–
Cc1cccc(N(C(=O)c2snc(C(N)=O)c2N)C(C(=O)NCC2CCCO2)c2ccc3ncccc3c2)c1 (stereo not drawn)	inconclusive: 28.2 µM [quencher, side channel, single point]	–
Cc1ccc(-c2ccc3nnc(SCC(N)=O)n3n2)cc1	inconclusive: 6.31 µM [quencher, side channel, partial curve]	–
COc1ccc(-c2cnnc(N/N=C/c3ccc(O)cc3)n2)cc1	inconclusive: 39.8 µM [quencher, side channel, single point]	–
CCCCCCN1C=C/C(=C\C=C(C#N)C#N)c2ccccc21	inconclusive: 3.16 µM [quencher, side channel, partial curve]	–
Cc1c(C)c2c(OCC(=O)N3CCC[C@H]3C(=O)O)cc3c(c2oc1=O)CCC(C)(C)O3	inconclusive: 14.1 µM [quencher, side channel, partial curve]	–
Cc1noc(-c2ccc(Cl)cc2)c1C(=O)O/N=C(\N)c1ccc(C(C)(C)C)cc1	–	inactive: -0.342%
N/C(=N\OC(=O)CC1CCCCC1)c1ccc(Br)cc1	–	inactive: -0.228%
O=C(O)CCNc1ccc(NCCC(=O)O)c2c1C(=O)c1ccccc1C2=O	inconclusive: 11.2 µM [quencher, side channel, partial curve]	–
CCOc1ccc(/C(O)=C2\C(=O)C(=O)N(c3ccc(OC)cc3)C2c2ccccc2[N+](=O)[O-])cc1 (stereo not drawn)	inconclusive: 12.6 µM [quencher, side channel, partial curve]	–
COc1cccc(CN2CCN(C(c3ccccc3)c3ccccc3)CC2)c1O	–	inactive: -4.43%
COc1ccc(OC)c(N)c1	–	inactive: -3.93%
Cc1cc(/C=C(\C#N)C(=O)NCc2ccco2)c(C)n1-c1ccc(C(=O)O)cc1	–	inactive: 21.8%
CCOc1ccc2c(c1)c1nnc(SCC(=O)NC3CC3)nc1n2C	inconclusive: 3.55 µM [quencher, side channel, full curve]	–

Compound	Potency	activity change, negative = inhibition
CC(c1ccccc1)C1CC(=O)N(c2ccc(C(=O)O)cc2)C1=O (stereo not drawn)	–	inactive: -7.5%
N#C/C(=C/c1ccc(N2CCOCC2)o1)c1nc2ccccc2[nH]1	inconclusive: 8.91 µM [quencher, side channel, full curve]	–
COc1ccc(-c2nc(C#N)c(NCCc3ccccc3)o2)cc1	–	inactive: 0.931%
COc1ccc(CNc2nc(=S)[nH]c3cc(OC)c(OC)cc23)cc1	inconclusive: 39.8 µM [fluorescent, side channel, single point]	–
COCCOC(=O)c1c(C)nc(SCC(=O)Nc2cccc3ccccc23)c(C#N)c1-c1ccco1	–	inactive: 10.2%
COCc1nnc(NC(=O)c2ccc(S(=O)(=O)N3CCCC3)cc2)o1	–	inactive: 0.212%
COC(=O)Cc1c(C)nc2nc(-c3ccc(OC)cc3)[nH]n2c1=O	inconclusive: 1.26 µM [fluorescent, side channel, full curve, poor fit]	–
Cc1ccc2cc(CN(Cc3ccc(F)cc3)Cc3nnnn3C3CCCC3)c(=O)[nH]c2c1	inconclusive: 39.8 µM [quencher, side channel, single point]	–
Cc1ccc(SC[C@H](CC(C)C)N2CCN(CCc3ccccc3)CCC2=O)cc1	–	inactive: -5.55%
COc1ccc2cc(C(=O)C3CCCN(C(=O)c4cncs4)C3)ccc2c1 (stereo not drawn)	inconclusive: 35.5 µM [quencher, side channel, single point]	–
COc1ccc(/C=C(/C(=O)c2cccs2)N2C=CC=CC2=C(C#N)C#N)cc1	inconclusive: 15.8 µM [activator, partial curve]	–
COc1ccc(C(=O)NC(=S)N(C)C2CCCCC2)cc1	–	inactive: -0.921%
COCCN1CCC(CNCc2cn(-c3cc(C)ccc3C)nc2-c2ccccc2)C1 (stereo not drawn)	inconclusive: 6.31 µM [inhibitor, single point]	–
O=C(N/N=C/c1ccncc1)/C(=C/c1ccccc1)NC(=O)c1ccccc1	inconclusive: 28.2 µM [quencher, side channel, partial curve, poor fit]	–
CN1CCN(c2ncccc2S(=O)(=O)N2CCCCC2)CC1	inconclusive: 126 µM [inhibitor, single point]	–
O=C(Oc1ccccc1)Oc1ccc2c(c1)oc(=O)c1ccccc12	inconclusive: 12.6 µM [fluorescent, side channel, partial curve]	–
COC(=O)C1C(O)C(C)C(O)C(C)(O)/C=C\C=C(/C)C(=O)Nc2c(C)c(OC(C)=O)c3c(c2O)C(=O)C(C)=C2OCOC(=C23)/C(C)=C/C(C)(O)C(O)C(C)C1O (stereo not drawn)	inconclusive: 20 µM [quencher, single point]	–
CSc1nnc(C2CCCN2)n1C (stereo not drawn)	–	inactive: -8.47%
O=C(NC(=S)N1CCOCC1)c1ccc([N+](=O)[O-])cc1	inconclusive: 14.1 µM [quencher, side channel, partial curve]	–
COc1ccc(-c2cn3ccccc3n2)cc1	–	inactive: -8.92%
O=C(C[n+]1cc(Br)cc(Br)c1)c1cccc([N+](=O)[O-])c1	inconclusive: 35.5 µM [quencher, side channel, partial curve]	–

Compound	Potency	activity change, negative = inhibition
Nc1c(-c2ccccc2)sc2ccc3ccccc3[n+]12	inconclusive: 17.8 µM [quencher, partial curve]	–
Cc1ccc(N/N=C2\CS(=O)(=O)N(C)c3ccsc32)cc1	inconclusive: 44.7 µM [quencher, side channel, single point]	–
C=CCn1c(O)c(C2=c3ccccc3=NC2=O)s/c1=N/c1nccs1	–	inactive: -2.31%
CC(OC(=O)c1ccc(-c2ccc([N+](=O)[O-])cc2)o1)C(=O)NC(N)=O (stereo not drawn)	inconclusive: 7.94 µM [quencher, side channel, partial curve]	–
CCOCCCNC(=O)/C(C#N)=C/c1ccc([N+](=O)[O-])o1	inconclusive: 31.6 µM [quencher, side channel, single point]	–
O=[N+]([O-])c1ccc(O)c(N=Cc2sc3ccccc3c2O)c1	inconclusive: 3.98 µM [quencher, side channel, partial curve]	–
CC(Sc1ccc2ccccc2n1)C(=O)O (stereo not drawn)	inconclusive: 28.2 µM [fluorescent, side channel, partial curve]	–
COc1cc2cc(C(=O)N/N=C/c3cccc(OC)c3OC)[nH]c2cc1OC	inconclusive: 20 µM [quencher, side channel, partial curve]	–
Cc1ccc(C)c(NC(=O)CCC(=O)NNC(=O)c2cccc([N+](=O)[O-])c2)c1	inconclusive: 28.2 µM [quencher, side channel, single point]	–
CCOC(=O)CCCNC(=O)CCNC(=O)c1ccc(OC)cc1	inconclusive: 0.126 µM [quencher, side channel, full curve, poor fit]	–
CCCCC(=O)Nc1ccc(NC(=O)c2ccccc2[N+](=O)[O-])cc1OC	inconclusive: 17.8 µM [quencher, side channel, single point]	–
CC(C)N(Cc1nc(-c2ccc(Cl)cc2)no1)Cc1nccn1C	–	inactive: -6.39%
Nc1c(C(=O)N2CCCCC2)sc(=S)n1-c1ccccc1	inconclusive: 12.6 µM [quencher, side channel, partial curve]	–
O=[N+]([O-])c1ccc(N2CCSCC2)cc1O	inconclusive: 12.6 µM [quencher, partial curve]	–
COC(=O)CCN(C(=O)c1ccc([N+](=O)[O-])cc1)c1ccccn1	inconclusive: 15.8 µM [quencher, side channel, partial curve]	–
Cc1ccc(C(=O)CSC2=C(C#N)C(c3ccco3)C3=C(CC(C)(C)CC3=O)N2)cc1 (stereo not drawn)	–	inactive: 25.2%
CCCCC(=O)NC(c1cccs1)c1cc(Cl)c2cccnc2c1O (stereo not drawn)	–	inactive: 22.6%
N#CC1=C(N)N(c2ccccc2)C(c2ccco2)C1(C#N)C#N (stereo not drawn)	–	inactive: 9.41%
COc1ccc(C2=Nn3c(nnc3-c3ccco3)SC2)cc1OC	inconclusive: 8.91 µM [quencher, side channel, partial curve]	–
COC(=O)c1ccc2nc(C)cc(Nc3ccccc3C)c2c1	–	inactive: -3.73%
CNC(=S)N/N=C1\C(=O)c2cccc3cccc1c23	inconclusive: 1.12 µM [quencher, side channel, full curve]	–
